# The supplement of paper PMC12217912
# Some of the results follow. Sequences were assembled here from the parent chain. Values near 0.05 are background.
# B1: TEV protease; numbered along this chain (parent)
# chain: MGESLFKGPRDYNPISSSICHLTNESDGHTTSLYGIGFGPFIITNKHLFRRNNGTLVVQSLHGVFKVKDTTTLQQHLVDGRDMIIIRMPKDFPPFPQKLKFREPQREERICLVTTNFQTKSMSSMVSDTSCTFPSGDGIFWKHWIQTKDGQCGSPLVSTRDGFIVGIHSASNFTNTNNYFTSVPKNFMELLTNQEAQQWVSGWRLNADSVLWGGHKVFMVKPEEPFQPVKEATQL
# Variants of: B1
# Assay: raw area under fraction-flipped curve 0-4 h after induction (AUC4h, not background-subtracted), DNA-recorder readout of cleavage of the substrate (dimensionless); higher = more cleavage of the substrate by the protease variant
# Details: temperature: 34 °C; time window: 0-4 h after rhamnose induction
# Protocol: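 In vivo DNA recorder in E. coli TOP10(DE3) ΔrhaA at 34 °C. Each TEVp single-site mutant (parent TEVp 0) is paired with a single-site variant of the 7-mer TEVs (canonical ENLYFQ|S). The substrate sits between flexible linkers in a Bxb1-sfGFP-TEVs-SsrA fusion, so cleavage stabilises Bxb1 and speeds flipping of a recombination array, read by NGS. The value is the raw area under the fraction-flipped curve over 0-4 h after rhamnose induction (AUC4h), with ≥20 reads per time point. It is not background-subtracted; inactive controls average about 0.047.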
# 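Further: Bxb1 expression induced with 0.2% (w/v) L-rhamnose at OD600 near 0.5, cultures sampled hourly, flipped fraction per protease–substrate barcode pair counted by paired-end Illumina sequencing.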
Variant,area with substrate ENLYFAS,area with substrate ENLYFES,area with substrate ENLYFFS,area with substrate ENLYFGS,area with substrate ENLYFKS,area with substrate ENLYFLS,area with substrate ENLYFMS,area with substrate ENLYFTS,area with substrate ENLYFVS,area with substrate ENLYFWS,area with substrate ENLYFYS,area with substrate ENLYFHS,area with substrate ENLYFIS,area with substrate ENLYFNS,area with substrate ENLYFPS,area with substrate ENLYFRS,area with substrate ENLYFSS,area with substrate ENLYFCS,area with substrate ENLYFDS
T70L,0.0703,0.0615,0.0797,0.0522,0.069,0.0703,0.0551,0.059,0.0522,0.0613,0.0514,,,,,,,,
F49Y,0.0703,,0.0451,,0.0517,,0.0469,,,,0.0718,0.0559,0.0598,0.0606,0.0633,0.0569,,,
F49Q,0.0942,0.0622,0.0367,0.0651,0.0552,,0.0719,,,0.0465,0.0575,0.0671,0.0576,0.0347,0.0563,0.0587,0.0571,,
D79F,0.0469,0.0577,0.0646,,0.0656,,,0.056,,0.0495,0.0351,,0.0491,0.0739,0.0587,0.0598,,0.0552,
D79M,0.0523,0.0685,0.0605,,0.0601,0.0717,0.0581,,,0.0442,0.0613,,0.0596,0.0647,0.0472,0.0558,,,0.0585
D79S,0.0483,0.0609,0.0593,0.05,0.0613,0.0553,0.0823,0.0504,,0.0564,0.0572,,0.048,,0.0616,0.0552,,0.0593,0.0645
R87H,0.0633,0.0698,0.0593,,,,0.0565,,,0.0421,,,0.0716,,0.0488,0.0564,0.0724,,
D69S,0.0622,0.0667,0.0685,,0.0574,,0.0581,0.0551,0.0423,0.0589,0.0469,,0.0513,0.0675,0.0611,,,0.0542,0.0544
I84S,0.0635,0.0695,0.0735,0.0399,0.0568,0.0511,0.0379,0.0662,0.0456,0.0545,0.0592,0.0375,0.0537,0.0604,0.065,0.0596,0.0521,0.0458,0.0615
I84A,0.0608,0.0541,0.0709,0.0751,,,0.0594,0.066,,,,,0.0571,0.0727,0.052,,,0.0555,
D82L,0.0282,,0.0539,,,0.0527,0.0436,0.0423,,,0.0493,0.0513,0.0636,0.045,0.06,0.0576,0.0697,0.0669,
D82H,0.0508,0.0724,0.0727,0.0456,0.0581,0.0605,0.0484,,0.0478,0.0518,,,0.0563,,0.0606,,,0.0795,
V57N,0.065,0.0841,0.0693,0.0628,0.0624,0.0675,0.0634,0.0637,,,0.0388,0.0867,0.0549,,0.0597,,0.0523,,
V67A,0.0465,0.0832,0.0672,,0.0528,,0.0538,,0.038,0.0459,0.0512,0.0581,0.0588,0.0549,0.0499,0.0645,,0.0523,0.0527
V67W,0.04,,0.0527,0.047,0.0515,0.0417,0.0616,0.0498,0.0679,,0.0732,0.0681,0.049,,0.0642,0.0584,0.0584,0.0554,
V67S,0.0534,0.0541,0.0597,,0.0404,,0.0532,0.0564,0.0439,,,0.0515,0.0536,0.0589,0.0466,0.054,,,0.0411
T71V,0.0641,0.0579,0.0521,0.0548,0.0562,0.0631,0.0601,0.0533,0.0614,0.0521,,,0.0533,0.0486,0.0403,,0.0504,0.0576,0.06
K66M,0.0514,0.0545,,,0.0628,0.0697,0.0742,0.0668,0.0628,,0.0676,,0.0535,0.0605,0.0606,,,0.0633,0.0528
K66D,0.0674,0.0641,,,,,0.072,0.0582,,0.0551,0.0681,,0.0609,0.0931,0.0639,0.0528,,,0.0601
R50C,0.0699,0.0435,0.0606,,,,0.0813,0.0629,0.0659,0.0545,0.0656,0.065,0.0604,,,,,,0.0709
G54C,0.0513,0.0649,0.071,0.0664,0.0561,0.0598,0.0579,0.0619,0.0569,0.0548,0.0377,0.0607,0.0556,,0.0607,0.0448,0.0496,0.0649,0.0481
G54M,0.0512,0.0569,0.0647,0.064,0.0655,,0.0512,0.062,0.0543,0.0524,0.064,0.0527,0.0577,0.0669,0.0596,0.0772,0.0566,0.0509,0.0523
G54A,0.0595,0.0669,0.0819,,0.066,0.0545,,0.0554,0.0593,0.0585,0.0533,0.0664,0.0558,0.0611,0.0658,0.0736,,0.0596,
G54W,0.064,0.0536,0.0585,0.0663,0.0602,0.0584,,0.0568,0.0403,0.0567,0.0548,0.054,0.0549,,0.0486,,0.0425,,0.0513
F65N,0.032,0.0619,0.0825,,0.0508,,0.0585,0.0439,0.0339,0.0476,0.0568,0.0461,0.0397,0.0615,0.0509,,,0.0559,0.0667
